# Results from PubChem BioAssay AID493208 (National Center for Advancing Translational Sciences (NCATS), 2011).
# About 340 (0.77%) of roughly 44,000 compounds were called active. Not shown: some 5% with an inconclusive outcome. The call rests on the fitted dose curve; in most records, active means well fitted inhibition curve with a large enough effect; inconclusive means small, poorly fitted or top-dose-only effect; inactive means flat fitted curve, though single readings scatter. The list shows a part of the results.
# Assay: Acumen qHTS Assay for Inhibitors of the mTORC1 Signaling Pathway in MEF (Tsc2-/-, p53-/-) Cells: Sytravon;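 further: plate controls were DMSO for no effect and rapamycin for full effect; nearly all actives have a fitted effect of over 50% in size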
# Settings: phospho-rpS6 immunofluorescence/PI, 24 h; series mostly up to 38.3 µM; activity change, negative = inhibition: at the top concentration
# Outline: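 Cell-based qHTS: Tsc2-/- p53-/- MEF, 24 h cpd, 37 °C; fix/perm, anti-phospho-S6 Alexa-488 + PI; Acumen 488 nm scan; pS6/PI ratio, % positive cells; rapamycin 7.5 nM = inhibition ref; PI count = viability.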
row,Structure (SMILES),"activity change, negative = inhibition"
1,CCOC(=O)c1c(C)oc2nc(C)nc(NCc3ccc(F)cc3)c12,inactive: -4.37%
2,COc1ccc(C(=O)Nc2nnc(SCc3cc(=O)c4cc(C)cc(C)c4[nH]3)s2)cc1,inactive: -9.23%
3,Cc1ccc(CNC(=O)CCCn2c(=O)c3ccccc3n(CC(=O)Nc3ccc(C)c(C)c3)c2=O)cc1,inactive: 1.04%
4,CCOc1ccc(CCNC(=O)CCCn2c(=O)c3cccn3c3ccccc32)cc1,inactive: 5%
5,Cc1ccc(-n2ncc3c(NCCC4=CCCCC4)ncnc32)cc1,inactive: 11.5%
6,COC(=O)NCC(c1cccnc1)N1CCN(c2ccc(F)cc2)CC1 (stereo unspecified),inactive: -7.29%
7,Cc1ccc(Cl)cc1NC(=O)C(C)n1nc(-c2ccccc2)ccc1=O (stereo unspecified),inactive: 3.97%
8,Cn1c(=O)c2c(nc(SCC(=O)Nc3ccccc3F)n2Cc2ccc(Cl)cc2)n(C)c1=O,inactive: 3.77%
9,COc1ccccc1N1CCN(S(=O)(=O)c2c(C)sc3ncn(CC(=O)N(C)c4ccc(Cl)cc4)c(=O)c23)CC1,inactive: -3.71%
10,CCNC(=O)c1c(NC(=O)Cc2coc3cc(C)cc(C)c23)sc2c1CCCC2,inactive: 2.32%
11,Oc1c(C(c2ccccc2F)N2CCN(Cc3ccccc3)CC2)sc2nc(-c3ccco3)nn12 (stereo unspecified),inactive: 0.166%
12,Cc1c(C(=O)N2CCC(c3nc4ccccc4s3)CC2)oc2ccc(Cl)cc12,inactive: 0.318%
13,Cc1ccc(Cl)cc1NC(=O)Cn1c(=O)oc2cc(S(=O)(=O)N3CCCC3)ccc21,inactive: -6.85%
14,Cc1ccc2c(CC(=O)Nc3ccc(S(=O)(=O)N4CCCCC4)cc3)coc2c1,inactive: -0.693%
15,Cc1cc(C)c2c(=O)nc(SCc3ccccc3C)n(C3CC3)c2n1,inactive: 0%
16,Cc1ccc(NC(=O)c2cc(-c3ccc(Br)s3)nc3ccccc23)cc1F,inactive: -9.11%
17,CCOc1ccccc1N(C)C(=O)C1CCCN(c2ncnc3c2nc2n3CCCCC2)C1 (stereo unspecified),inactive: -18.3%
18,Cc1ccc(-n2ncc3c(Nc4cccc(C)c4C)ncnc32)cc1,inactive: 10.4%
19,COCCn1c(=NC(=O)c2ccc3c(c2)OCCO3)sc2cc(C(=O)OC)ccc21,inactive: 1.34%
20,COc1ccc(C(=O)OC2=C(C(=O)c3ccccc3)N(C)S(=O)(=O)c3ccccc32)cc1OC,inactive: -6.4%
21,CCOc1ccc(CNC(=O)Cn2cc3c(n2)-c2c(oc(C(=O)N4CCOCC4)c2C)CC3)cc1,inactive: -7.18%
22,Cc1ccc(CN2C(=O)C3(c4ccccc42)N(c2cccc(F)c2)C(=O)CS3(=O)=O)cc1 (stereo unspecified),inactive: 2.72%
23,CCOC(=O)c1c(C)c(-c2ccccc2)n(CC(=O)Nc2cc(C)ccc2OC)c1C,inactive: -0.107%
24,Cc1ccccc1CN1CCC(CNc2ncnc3onc(-c4ccc(F)cc4)c23)CC1,inactive: -5.35%
25,COc1cc(NC(=O)NC(C)c2c(-n3cccc3)sc3c2CCCC3)cc(OC)c1OC (stereo unspecified),inactive: -0.599%
26,CCCCN(CC)CCNC(=O)c1cn(C)c(=O)c2c1c1ccccc1n2C,inactive: 1.9%
